# Measurements taken from PubChem BioAssay AID686970 (National Center for Advancing Translational Sciences (NCATS), 2013).
# Hit rate of the full screen: of about 360,000 compounds, about 6,000 (1.7%) were called active. Inconclusive results, whose numbers are uncertain, are shown with a selection of clear calls. The call rests on the fitted dose curve; in most records, active means well fitted cell-killing curve with a large enough effect; inconclusive means small, poorly fitted or top-dose-only effect, or effect the other way; inactive means flat fitted curve, though single readings scatter. No potency is given beside an inconclusive call; the fits are too rough.
# Experiment: qHTS for induction of synthetic lethality in tumor cells producing 2HG: qHTS for the HT-1080-NT fibrosarcoma cell line;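 further: NT is the 2HG producing partner of a matched IDH1 knockdown line; nearly all actives have a fitted effect of over 55% in size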;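 on activity, negative = less viability: 0% = DMSO-treated cells and -100% = media-only wells without cells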
# Conditions: HT-1080-NT fibrosarcoma viability, CellTiter-Glo ATP luminescence, 48 h; activity, negative = less viability: at 46.1 µM (top of the series) unless noted
# Outline: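 Viability by CellTiter-Glo luminescence after 48 h compound exposure at 37C of HT-1080-NT cells (750/well, RPMI, 5% FBS). % activity scaled between DMSO wells and medium-only wells, then curve-fitted and categorized by curve class.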
# Potency means the concentration at half of the fitted maximal effect; tags describe the fitted curve by direction and shape.
SMILES,Potency,"activity, negative = less viability"
COc1ccc(Oc2ccc(/C=C/C(=O)c3cccc(OC)c3)cc2[N+](=O)[O-])cc1,"inconclusive [cytotoxic, single point]",
CCCCCCCCN1C(=O)[C@H](CC(=O)NCCCOC)C[C@@]2(C(=O)OCC)CCCC=C12,"inconclusive [cytotoxic, single point]",
Nc1ncnc2c1ncn2[C@@H]1O[C@H](C(=O)N2CCN(c3ccc(Cl)cn3)CC2)[C@@H](O)[C@H]1O,"inconclusive [cytotoxic, single point]",
CCC(NC(=O)c1cc(COc2ccc(F)cc2Cl)on1)c1ccncc1 (centres undefined),inactive,
CN(C)C(=O)c1cccc(-c2cccc(-c3nc(C(=O)NCc4ccccc4)cc4c3[C@@H](CCO)N(S(=O)C(C)(C)C)C4)c2)c1 (some centres undefined),"inconclusive [cytotoxic, single point]",
CCN(CC)c1ccc(N=Cc2ccccc2[N+](=O)[O-])cc1,inactive,
Cc1ccc(S(=O)(=O)NCCCNS(=O)(=O)c2ccc(C)cc2)cc1,inactive,
CCCCCCNC(=O)O[C@H]1CN(C(=O)OC(C)C)N(C(=O)OC(C)C)[C@@H]2CN(S(=O)(=O)c3ccc(C)cc3)C[C@]12O,active: 20.6 µM,
Cc1cc(NC(=O)c2ccc(F)cc2)n(-c2ccccn2)n1,inactive,
Cc1cccc(NC(=O)CN2C(=O)S/C(=C\c3ccc(O)c([N+](=O)[O-])c3)C2=O)c1,inactive,
COc1cc(C#N)ccc1OCC(=O)N1CCc2ccccc2C1,inactive,
COc1ccc(Nc2nc(=O)c3cc([N+](=O)[O-])ccc3s2)cc1,,inconclusive: 10.4%
Cc1cccc(NC2=C(NCCO)C(=O)c3ccccc3C2=O)c1,"inconclusive [cytotoxic, single point]",
CCOC(=O)[C@]12CCCC=C1N(Cc1ccc3c(c1)OCO3)C(=O)[C@H](CC(=O)N1CCC(c3ccccc3)CC1)C2,"inconclusive [cytotoxic, single point]",
CCCCN(C(=O)c1ccccc1OCc1ccc(F)cc1)c1c(N)n(CCC)c(=O)[nH]c1=O,inactive,
COC(=O)C1=C(C)N(Cc2ccccc2)C(=NCc2ccc3c(c2)OCO3)N[C@H]1c1ccccc1,inactive,
COc1ccc(C)cc1NC(=O)c1ccc2c(SCC(=O)O)c3c(nc2c1)CCCC3,inactive,
NC(=O)c1sc2nc3c(c(-c4ccc(Cl)cc4)c2c1N)CCCC3,"inconclusive [cytotoxic, single point]",
COc1ccc(C=CC(=O)c2ccc(OC)c(OC)c2)cc1O,inactive,
O=C(Nc1ccsc1C(=O)NC1CCCCC1)c1ccc(F)cc1,"inconclusive [cytotoxic, single point]",
CCN1CCN(CCNC(=O)c2ccc(/C=C3\Sc4ccccc4N(Cc4ccccc4F)C3=O)cc2)CC1,active: 16.4 µM,
CCCCN(C=O)c1c(CC)nc2c(OCc3cc(Cl)cc(Cl)c3)cccn12,"inconclusive [cytotoxic, single point]",
CNCCC=C1c2ccccc2CCc2ccccc21,active: 23.1 µM,

SMILES,Potency,"activity, negative = less viability"
CC12CC(NC(=O)N1c1cccc(C(=O)NCc3ccc4c(c3)OCO4)c1)c1cc(Cl)ccc1O2 (centres undefined),"inconclusive [cytotoxic, single point]",
O=C(Nc1cccc(S(=O)(=O)C(F)F)c1)c1ccc(S(=O)(=O)N2CCCC2)cc1,,inconclusive: -10.3% [cytotoxic]
COc1ccc(/C=N/NC(=O)CCC(=O)Nc2ccc(Br)cc2)c(OC)c1,"inconclusive [cytotoxic, single point]",
COC(=O)c1cc(CSC(=N)N)ccc1OCCC(C)C,"inconclusive [cytotoxic, single point]",
C=CCN1CC(c2nc3ccccc3n2Cc2cccc3ccccc23)CC1=O (centres undefined),"inconclusive [cytotoxic, single point]",
CCOC(=O)c1sc(NC(=O)c2cc(-c3ccccc3)nc3ccccc23)c(C#N)c1C,active: 2.91 µM,
COC(=O)[C@@H](Cc1ccccc1)NC(=O)/C=C/[C@H]1O[C@@H](n2cnc3c(NC(=O)c4ccccc4)ncnc32)[C@H](O)[C@@H]1O,inactive,
O=C1Nc2ccccc2/C1=C/c1cnc(-c2ccccc2)[nH]1,"inconclusive [cytotoxic, single point]",
CC1=C(C(=O)N(C(C)C)C(C)C)CC(CC(=O)NCCCCc2ccccc2)C(=O)N1CCC1=CCCCC1 (centres undefined),"inconclusive [cytotoxic, single point]",
CCC(C)(C)C(=O)Nc1cc([N+](=O)[O-])ccc1Cl,"inconclusive [rising, single point]",
CC(=O)c1ccc(N2CCN(S(=O)(=O)c3ccc4c5c3CC(=O)N5CC(C)S4)CC2)cc1 (centres undefined),inactive,
Cc1csc(NC(=O)CCCSc2nc3ccccc3s2)n1,"inconclusive [cytotoxic, single point]",
Cc1ccccc1/C=N/Nc1ccnc2cc(Cl)ccc12,"inconclusive [cytotoxic, single point]",
CC(=O)c1ccc(NC(=S)NC(C)c2ccc(Cl)cc2Cl)cc1 (centres undefined),"inconclusive [cytotoxic, single point]",
CCCCN(C)c1c(C)nc2ccc(C(=O)Nc3cc(-c4ccccc4)ccc3OC)cn12,"inconclusive [cytotoxic, single point]",
O=C(OCc1ccccc1)N1CCN(C(c2ccnc3ccccc23)c2nnnn2-c2ccc3c(c2)OCCO3)CC1 (centres undefined),"inconclusive [cytotoxic, single point]",
CC1(C(=O)NCc2cccc(Cl)c2)Cc2c(-c3cccc(C(N)=O)c3)ccnc2O1 (centres undefined),"inconclusive [cytotoxic, partial curve]",
Cc1ccccc1CN1C(=O)/C(=C\c2ccc(C(=O)NCCN3CCOCC3)cc2)Sc2ccccc21,"inconclusive [cytotoxic, single point]",
CCOC(=O)/C(=C\c1cccnc1)C(=O)c1cc(C(C)=O)c(Nc2ccccc2)s1,active: 5.8 µM,
CC1CCCCN1Cc1c(O)ccc2c(=O)c(-c3nc4ccccc4s3)coc12 (centres undefined),"inconclusive [cytotoxic, single point]",
CN1CCc2nc(SCc3ccc(C(C)(C)C)cc3)c(C#N)cc2C1,"inconclusive [cytotoxic, single point]",
COc1ccc(-c2nc(C3CCCCC3)c3cc(OC)ccc3n2)cc1,,inconclusive: 32.6%
CC(=O)c1cccc(NC(=O)C2(C)Cc3c(-c4cccc(C(F)(F)F)c4)ccnc3O2)c1 (centres undefined),"inconclusive [cytotoxic, single point]",

SMILES,Potency,"activity, negative = less viability"
O=S(=O)(NCc1ccc(F)cc1)c1ccc(-c2cnc(C3CC3)o2)cc1,"inconclusive [cytotoxic, single point]",
COc1ccccc1N1CC(C)(C)C(=O)N(C(=O)c2ccc(Cl)cc2)C1=S,"inconclusive [cytotoxic, single point]",
Cc1sc2nc(SCC(=O)N(C)Cc3ccccc3)n(-c3ccccc3)c(=O)c2c1C,inactive,
CCC(C)(C)n1nnnc1C(c1ccc(F)cc1)N1CCN(C(=O)c2ccco2)CC1 (centres undefined),inactive,
O=c1c2ccccc2c2ccccc2c(=O)n1Nc1ccccc1,"inconclusive [cytotoxic, single point]",
CC1CCC(CN2C(Nc3ccccc3)=NC[C@@H]2C)CC1 (some centres undefined),inactive,
O=C(NCCc1ccc(Cl)cc1)C1CCN(S(=O)(=O)c2cccc3nonc23)CC1,"inconclusive [cytotoxic, partial curve]",
CCN(CC)S(=O)(=O)c1cccc(C(=O)NCC2(N3CCOCC3)CCCCC2)c1,inactive,
Cc1ccc(S(=O)(=O)N2CCN(c3ncnc4sccc34)CC2)cc1C,"inconclusive [cytotoxic, single point]",
CC(C)(C)NC(=O)C1c2ccccc2OCC(=O)N1Cc1ccco1 (centres undefined),inactive,
N=C1C(c2ccccc2)=C(O)CN1c1cccc(S(=O)(=O)NCc2ccco2)c1,inactive,
COc1ccc(CCNC(=O)c2ccc(OCc3c(C)noc3C)c(OC)c2)cc1,inactive,
Cc1ccc(C)c(N2CCN(C(=O)CCc3nc(-c4ccccc4F)no3)CC2)c1,inactive,
CCn1c(C)nc2cc(C(=O)N/N=C(\C)c3ccc(OC)cc3O)ccc21,"inconclusive [cytotoxic, partial curve]",
CCCn1c2c(c(O)c(C(=O)Nc3ncccc3O)c1=O)CCCC2,"inconclusive [cytotoxic, single point]",
Cc1ccc(S(=O)(=O)NC(=O)Nc2cc(C)ccc2F)cc1,inactive,
COc1cccc(CCN2C(=O)C(=O)N([C@@H](CNCc3ccccc3)Cc3ccccc3F)C[C@@H]2C(C)(C)C)c1,inactive,
CCNC(=O)C1(C)CCN(C(=O)c2ccc(C#N)cc2)C1 (centres undefined),inactive,
CN(C)c1ccc(C(=O)n2nnc3ccccc32)cc1,"inconclusive [cytotoxic, single point]",
Cc1ccccc1CS(=O)(=O)c1nnc([C@H](CC(C)C)NC(=O)OC(C)(C)C)o1,active: 11.2 µM,
CC(C)OC(=O)CSc1nc(N)c(C#N)c(-c2cccs2)c1C#N,"inconclusive [cytotoxic, partial curve]",
CCN(CC)c1cc(C)c2ccccc2n1,inactive,
CC(=O)N1CCc2c(sc(NC(=O)C3CCN(S(=O)(=O)c4cccs4)CC3)c2C(N)=O)C1,inactive,
